Out of some 270,000 compounds screened, about 5,800 (2.1%) were called active. Inconclusive results, whose numbers are uncertain, are shown with a selection of clear calls. The call rests on the fitted dose curve; in most records, active means well fitted inhibition curve with a large enough effect; inconclusive means small, poorly fitted or top-dose-only effect; inactive means flat fitted curve, though single readings scatter. A potency beside an inconclusive call is a rough fit, not a confirmed value. A structure can be active in one record and inactive in another.
target: Microtubule-associated protein tau (Homo sapiens) (UniProt P10636); experiment: qHTS for Inhibitors of Tau Fibril Formation, Thioflavin T Binding; conditions: recombinant tau K18 P301L, heparin-induced fibrillization, ThT fluorescence; series mostly up to 57.4 µM; further: nearly all actives have a fitted effect of over 55% in size
Chain of UniProt P10636 (P10636 whole entry, looked up): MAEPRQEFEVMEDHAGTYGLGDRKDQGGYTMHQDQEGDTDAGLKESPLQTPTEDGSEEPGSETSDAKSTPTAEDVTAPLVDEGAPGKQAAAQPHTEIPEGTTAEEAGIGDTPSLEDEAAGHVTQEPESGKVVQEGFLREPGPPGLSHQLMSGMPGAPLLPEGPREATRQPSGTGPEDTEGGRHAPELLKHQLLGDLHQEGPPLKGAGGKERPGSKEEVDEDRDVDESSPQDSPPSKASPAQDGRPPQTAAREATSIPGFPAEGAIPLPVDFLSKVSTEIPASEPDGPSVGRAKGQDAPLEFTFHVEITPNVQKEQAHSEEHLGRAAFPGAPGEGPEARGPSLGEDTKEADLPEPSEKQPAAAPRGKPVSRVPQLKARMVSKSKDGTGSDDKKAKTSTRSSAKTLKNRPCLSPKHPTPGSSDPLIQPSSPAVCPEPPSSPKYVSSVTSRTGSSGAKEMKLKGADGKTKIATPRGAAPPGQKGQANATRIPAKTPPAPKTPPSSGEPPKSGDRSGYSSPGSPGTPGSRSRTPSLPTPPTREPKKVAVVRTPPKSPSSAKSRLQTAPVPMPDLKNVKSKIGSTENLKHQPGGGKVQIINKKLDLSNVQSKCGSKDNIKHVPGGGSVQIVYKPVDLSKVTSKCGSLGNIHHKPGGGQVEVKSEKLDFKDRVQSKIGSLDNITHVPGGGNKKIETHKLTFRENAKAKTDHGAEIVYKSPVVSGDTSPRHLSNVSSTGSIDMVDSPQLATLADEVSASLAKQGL
Method in brief: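 ThT emission at 510 nm, taken 1 hr after adding 30 uM dye, quantifies aggregates formed when 20 uM heparin acts on human tau K18 P301L for 6 hr at 37 C.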
Potency means the concentration at half of the fitted maximal effect; tags describe the fitted curve by direction and shape.

Structure (SMILES) | Potency
C=CC1=C2C=C(C3CC3)N(c3ccc(OC)cc3)C=C2C(=O)C(C)(OC(=O)c2ccco2)C1=O (stereo not given) | inconclusive: 3.55 µM [inhibitor, single point]
O=C(Nc1cc(NC(=O)c2ccccc2Cl)ccc1Cl)c1ccccc1 | inactive
CCC(=O)Nc1nc2ccccc2n1Cc1ccc(C)cc1 | inactive
O=c1oc(-c2ccco2)nc2sc3c(c12)CCCCC3 | inconclusive: 2 µM [inhibitor, full curve]
COc1ccc(-c2cc3ccccc3oc2=O)cc1NC(=O)c1ccc([N+](=O)[O-])o1 | inconclusive: 3.16 µM [inhibitor, full curve]
CCOC(=O)C(=NC(C)C)NNc1cc(Cl)ccc1Cl | inconclusive: 28.2 µM [inhibitor, single point]
CCNCc1ccccc1OCc1ccccc1 | inactive
O=C1C2CC=C(Cl)CC2C(=O)N1CC1OCCc2ccccc21 (stereo not given) | inactive
COc1ccc(C(=O)NCC(c2cccnc2)N2CCc3ccccc3C2)cc1OC (stereo not given) | inconclusive: 4.47 µM [inhibitor, full curve]
BrC(/C=N/N1CCN(Cc2ccccc2)CC1)=C/c1ccccc1 | inconclusive: 35.5 µM [inhibitor, single point]
Cc1cccc(-n2c(O)c(C=Nc3ccccc3O)c3ccccc3c2=O)n1 | inconclusive: 14.1 µM [inhibitor, partial curve]
NC(=O)C1CCN(CC(=O)NC2CCCc3ccccc32)CC1 (stereo not given) | inactive
COC(=O)/C(=C/Nc1ccc(O)cc1)[N+](=O)[O-] | active: 17.8 µM
COc1ccc2nc(SCC(=O)N3CCCCC3)c(C#N)cc2c1 | inactive
O=C1C=CC(=O)N1CCCCCCN1C(=O)C=CC1=O | inconclusive: 35.5 µM [inhibitor, partial curve]
c1ccc(-c2nc(-c3cccc4ccccc34)c(Nc3ccc4ccccc4c3)o2)cc1 | inconclusive: 8.91 µM [inhibitor, partial curve]
O=C(COc1cccc2ccccc12)N/N=C/c1ccc(Sc2nc3ccccc3s2)o1 | inconclusive: 10 µM [inhibitor, partial curve]
CC1CN(C2=Nc3cccc4cccc2c34)CC(C)O1 (stereo not given) | inactive
CCn1nc([N+](=O)[O-])c(C(C#N)c2nc3cc(C(F)(F)F)ccc3s2)c(Cl)c1=O (stereo not given) | active: 4.47 µM
Cc1c(C(=O)c2no[n+]([O-])c2C(=O)c2cnn(C)c2C)cnn1C | active: 14.1 µM
Cc1nc2cc(NC(=O)Nc3cccc(F)c3)ccc2n1C | inconclusive: 39.8 µM [inhibitor, single point]
COc1cc(CNCCc2c[nH]c3ccccc23)ccc1OCc1ccc(F)cc1 | inconclusive: 25.1 µM [inhibitor, partial curve]
Cc1ccc(-c2ccc(/C=N/N=C3/NC(=O)C(CC(=O)O)S3)o2)c([N+](=O)[O-])c1 (stereo not given) | active: 10 µM
O=C(NCCCc1ccccc1)C1CCN(c2nnc(-n3cccc3)s2)CC1 | inconclusive: 7.08 µM [inhibitor, partial curve]

Structure (SMILES) | Potency
CC(c1ccc(F)cc1)n1c(Cn2ncc3ccccc3c2=O)n[nH]c1=S (stereo not given) | inactive
Nc1ccc(N(c2ccccc2)c2ccc(N)cc2)cc1 | inconclusive: 25.1 µM [inhibitor, partial curve]
COc1cccc(NC(=O)Nc2ccc(C(C)(C)C)cc2)c1 | inactive
CCn1c(=O)c2cc(C(=O)Nc3cc(F)ccc3F)sc2c2ccccc21 | inactive
CC(=O)OCC1=C(C(=O)O)N2C(=O)C(NC(=O)c3ccc(COc4c(C)cccc4Cl)o3)C2SC1 (stereo not given) | inconclusive: 31.6 µM [inhibitor, partial curve]
CCOC(=O)/C=C/C(=O)OCC(=O)Nc1ccc(Cl)cn1 | inconclusive: 7.94 µM [inhibitor, partial curve]
CN(C)c1cccc2c1c(NC(=O)Nc1ccc(F)cc1F)nn2C | inconclusive: 39.8 µM [inhibitor, single point]
CCC(C(=O)Nc1cccc(Cl)c1C)n1nc(-c2ccc(C)cc2)ccc1=O (stereo not given) | inconclusive: 39.8 µM [inhibitor, single point]
CC(C)COc1cccc(C(=O)Nc2ccc(-c3nc4ncccc4o3)cc2)c1 | inconclusive: 0.398 µM [inhibitor, full curve]
Cc1ccn(-c2cc(O)c(-n3ccc(C)n3)cc2O)n1 | inconclusive: 1.58 µM [inhibitor, full curve]
O=C1c2cccc(OCC(=O)N3CCCc4ccccc43)c2CCN1Cc1ccc(F)cc1 | inconclusive: 39.8 µM [inhibitor, partial curve]
Cc1cc(C)n2ncnc2n1 | inactive
Cc1ccccc1-c1cc(C(=O)Nc2sc(C)c(C)c2C(N)=O)c2ccccc2n1 | active: 22.4 µM
COc1ccccc1NC(=O)Cn1c(=O)n(Cc2ccccc2)c(=O)c2sc3ccccc3c21 | inconclusive: 22.4 µM [activator, single point]
CC(C)(C)c1ccc(-c2nnc(SCC(=O)c3ccc4c(c3)OCCO4)o2)cc1 | inconclusive: 1.26 µM [inhibitor, full curve]
O=C(COC(=O)CCc1c[nH]c2ccccc12)Nc1cc([N+](=O)[O-])ccc1Cl | inconclusive: 10 µM [inhibitor, partial curve]
COc1ccc(OC)c(NC(=O)CN(C)S(=O)(=O)c2ccc(C(=O)N3CCOCC3)s2)c1 | inactive
CCOC(=O)N1CC=C2C(C#N)=C(N)C(C#N)(C#N)[C@H](c3cccs3)[C@H]2C1 | inconclusive: 25.1 µM [inhibitor, single point]
Cc1ccc2[nH]c3nc(SCCN4CCOCC4)nnc3c2c1 | inconclusive: 15.8 µM [inhibitor, partial curve]
COc1cc(/C=C/C(=O)N2CCCCC2=O)cc(OC)c1OC | active: 11.2 µM
COc1ccc(N/C=C(\C2OC(=O)c3ccccc32)[N+](=O)[O-])cc1 (stereo not given) | inconclusive: 12.6 µM [inhibitor, partial curve]
C=CCNc1nc(-c2ccc([N+](=O)[O-])cc2)cs1 | active: 7.08 µM
CC(=O)c1ccc(NC(=O)c2noc3c2CCc2ccccc2-3)cc1 | inconclusive: 1 µM [inhibitor, full curve]
CC/C(=C(/c1ccccc1)c1ccc(OCCN(C)C)cc1)c1ccccc1 | inconclusive: 35.5 µM [inhibitor, partial curve]

Structure (SMILES) | Potency
COC(=O)CCCC1=CC2=CC(=O)C(C)(OC(=O)c3cccs3)C(=O)C2=CN1Cc1ccccc1 (stereo not given) | active: 12.6 µM
O=C(Nc1ccc(C(=O)OCc2cc(=O)n3c4c(sc3n2)CCCC4)cc1)c1ccccc1 | inconclusive: 20 µM [activator, partial curve]
COC(=O)[C@H](COC(C)(C)C)NC(=O)O[C@@H]1C(=O)c2cc(OC)ccc2O[C@H]1c1ccc(OC)c(Br)c1 | inconclusive: 10 µM [inhibitor, partial curve]
CCCN1C(C(=O)c2ccccc2)=C(OC(=O)COc2ccccc2)c2ccccc2S1(=O)=O | inconclusive: 15.8 µM [inhibitor, partial curve]
O=C(NC1CCCCCC1)c1ccc2c(c1)sc1nc(-c3ccc(F)cc3)cn12 | inconclusive: 44.7 µM [inhibitor, single point]
CC(C)c1ccc2[nH]c3c(c2c1)CCC/C3=N\NC(=O)c1ccncc1 | inconclusive: 14.1 µM [inhibitor, partial curve]
CCOC(=O)c1nn(-c2ccc(C)c(C)c2)c(=O)c2c(N)scc12 | inactive
CCC(CC)NC(=O)c1oc2ccccc2c1COc1ccccc1 | inactive
COc1ccc(-n2cc(CNCCc3ncc(C)[nH]3)c(-c3ccccc3Cl)n2)cc1 | inconclusive: 8.91 µM [inhibitor, partial curve]
Cc1nc(N[C@@H](Cc2c[nH]c3ccccc23)C(=O)O)c2oc3ccccc3c2n1 | inconclusive: 31.6 µM [inhibitor, partial curve]
Cc1cc(C(=O)N/N=C/c2ccc(-c3cccc(Cl)c3Cl)o2)n[nH]1 | inconclusive: 3.98 µM [inhibitor, partial curve]
O=C(N/N=C/c1sc(=O)n(-c2ccccc2)c1Cl)c1ccncc1 | inconclusive: 20 µM [inhibitor, single point]
Cc1[nH]c2ccccc2c1C(=O)COc1ccccc1F | inconclusive: 12.6 µM [inhibitor, partial curve]
c1ccc(-n2ncc3c2ncn2nc(-c4ccco4)nc32)cc1 | inconclusive: 2.24 µM [inhibitor, full curve]
CN(C(=O)C1CCN(S(=O)(=O)c2cccs2)CC1)C1CCCCC1 | inactive
CC(C)Oc1ccc2c(=O)cc(-c3ccccc3)oc2c1 | inconclusive: 3.55 µM [inhibitor, full curve, poor fit]
O=c1cc(-c2cccc(O)c2)oc2ccc(O)cc12 | inactive
CCOc1ccccc1CNC(=O)Cn1c(-c2ccccc2)cc(C(C)=O)c1C | inactive
CCOC(=O)CSC1=N/C(=C/c2ccc(-n3cncn3)cc2)C(=O)N1C(C)=O | inconclusive: 15.8 µM [inhibitor, partial curve]
O=C(c1ccc(F)cc1)c1ccc(N2CCCC2)cc1 | inconclusive: 31.6 µM [inhibitor, partial curve]
COc1cccc(Cn2nnc(C(=O)Nc3cc(C)ccc3C)c2N)c1 | inconclusive: 3.16 µM [inhibitor, full curve, poor fit]
COCCCNC(=S)N/N=C/c1ccccc1O | inactive

Reference: PubChem BioAssay AID1460 (National Center for Advancing Translational Sciences (NCATS), 2008)
